# Measured values as given in PubChem BioAssay AID686978 (National Center for Advancing Translational Sciences (NCATS), 2013).
# Several values for one entry are separate records, joined by “and”; a condition that tells them apart may be missing. Identical values can stand only once. Among all 420,000 compounds or so, about 64,000 (15%) were called active. The shares of active, inactive and inconclusive entries below differ from those in the screen. The call rests on the fitted dose curve; in most records, active means well fitted inhibition curve with a large enough effect; inconclusive means small, poorly fitted or top-dose-only effect; inactive means flat fitted curve, though single readings scatter. A potency beside an inconclusive call is a rough fit, not a confirmed value.
# Test: qHTS for Inhibitors of human tyrosyl-DNA phosphodiesterase 1 (TDP1): qHTS in cells in absence of CPT; further: nearly all actives have a fitted effect of over 55% in size
# Conditions: DT40 Tdp1-/- hTDP1 cells, no CPT, ATP luminescence, 48 h; series mostly up to 46.2 µM
# Outline: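 Compound effects on proliferation are scored in DT40 Tdp1-/-;hTDP1 cells in the absence of CPT. ATP levels (CellTiter-Glo luminescence) are recorded after a ≥48 hr, 37 °C incubation.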
# Potency means the concentration at half of the fitted maximal effect; tags describe the fitted curve by direction and shape.
row,SMILES,Potency
1,CC(=O)NC1Sc2ccccc2N=C1c1ccccc1 (configuration not stated),"inconclusive: 20.6 µM [inhibitor, partial curve]"
2,CCOC(=O)C(C)N1C(=O)S/C(=C/c2cc(C)n(-c3ccccn3)c2C)C1=O (configuration not stated),active: 16.4 µM
3,CC(C)Nc1nnc(SCC(=O)N2CCN(C(=O)c3ccco3)CC2)s1,inactive
4,CCOc1ccc(/C(O)=C2/C(=O)C(=O)N(c3ccccn3)C2c2ccc(C)cc2)c(C)c1 (configuration not stated),"inconclusive: 32.6 µM [inhibitor, partial curve, poor fit]"
5,O=C(OC1CCCCC1=O)c1cccc(S(=O)(=O)NCc2ccccc2)c1 (configuration not stated),"inconclusive: 23.1 µM [inhibitor, single point]"
6,COc1ccc(CNC(=O)CCc2c(C)c3cc4c(C)c(C)oc4cc3oc2=O)cc1,"inconclusive: 29.1 µM [inhibitor, partial curve, poor fit]"
7,CCC(C)[C@H](NC(=O)[C@H](Cc1ccccc1)n1c(=O)[nH]c2ccccc2c1=O)C(=O)N1CCC(C(=O)O)CC1 (some centres not stated),inactive
8,O=c1c(NCc2ccccc2Cl)nccn1-c1ccccc1,inactive
9,CCOCCc1c(O)nc(SCC)[nH]c1=O,inactive
10,Cn1nc(-c2ccncc2)nc2c(=O)n(C)c(=O)nc1-2,active: 0.355 µM
11,CC(C)Cn1cnc2c(SCc3ccccc3)nc(N)nc21,"inconclusive: 29.1 µM [inhibitor, single point]"
12,COC(=O)[C@@]1(Cc2ccc(F)cc2)[C@H]2c3cc(C(=O)N(C)C)n(Cc4ccc(C)o4)c3C[C@H]2CN1C(=O)c1ccccc1,active: 20.6 µM
13,COc1ccc(S(=O)(=O)N(C)CC(=O)Nc2ccc3c(c2)OCCO3)cc1,"inconclusive: 16.4 µM [inhibitor, single point]"
14,CN(C(=O)c1cccc(NC(=O)Cc2cccc(NC(=O)C3CCN(C(=O)C4CCCCC4)CC3)c2)c1)C1CCC1,inactive
15,CN1CCN(c2ccccc2NC(=O)c2ccc(N3CCCC3)c([N+](=O)[O-])c2)CC1,"inconclusive: 25.9 µM [inhibitor, single point]"
16,Cc1ccc(CNC(=O)c2ccc(NC(=O)C3=CSCCO3)cc2)cc1,"inconclusive: 32.6 µM [inhibitor, single point]"
17,CCC(=O)N1CCc2cc(Br)cc(S(=O)(=O)N3CCC(C(=O)Nc4ccccc4F)CC3)c21,"inconclusive: 16.4 µM [inhibitor, single point]"
18,COCCn1c(C)cc(C(=O)CSc2nc(C)nc3sc4c(c23)CCC4)c1C,active: 20.6 µM
19,CN(C)/C=N/c1sc2c(c1C(N)=O)CCCC2,"inconclusive: 14.6 µM [inhibitor, partial curve, poor fit]"
20,Cc1ccc(/C=C/C(=O)O)cc1S(=O)(=O)NCCCO,"inconclusive: 6.51 µM [inhibitor, single point]"
21,CCCCNc1ccc(C(=O)OCCN(C)C)cc1,"inconclusive: 8.05 µM [inhibitor, partial curve, poor fit] and inconclusive: 18.4 µM [inhibitor, single point]"
22,O=C(NCc1ccc(Cl)cc1)c1ccc2nc[nH]c2c1,inactive
23,O=C(CNC(=O)c1ccc(Cl)cc1)NCCCn1ccnc1,inactive

row,SMILES,Potency
1,Cc1c(C(=O)N2CCN(c3ccc(F)cc3)CC2)sc2nc3n(c(=O)c12)CCC3,"inconclusive: 32.6 µM [inhibitor, single point]"
2,Cc1ccc2nc(C(C)(C)C)c(Cc3cccc(Cl)c3)n2c1,active: 18.4 µM
3,Cc1c(C(=O)N(C)CC(=O)Nc2cccc(F)c2)oc2c(Cl)cccc12,"inconclusive: 20.6 µM [inhibitor, single point]"
4,CCc1nc2c(OCc3cccc(Cl)c3)cccn2c1N(C)C(C)=O,"inconclusive: 29.1 µM [inhibitor, single point]"
5,COc1ccc(Br)cc1/C(C)=N/NC1=NCCN1,active: 14.6 µM
6,O=c1[nH]c2ccccc2nc1/C=C/c1ccc(F)cc1,"inconclusive: 29.1 µM [inhibitor, single point]"
7,O=C(Nc1ccc(Cl)cc1Cl)c1cc(S(=O)(=O)N2CCCCCC2)ccc1F,"inconclusive: 29.1 µM [inhibitor, single point]"
8,N#Cc1ccc(OCC(=O)Nc2cc(S(=O)(=O)N3CCCCC3)ccc2N2CCCCC2)cc1,"inconclusive: 20.6 µM [inhibitor, partial curve]"
9,O=C(CSc1nnc(NC(=O)Cc2ccc(F)cc2)s1)NCc1ccco1,"inconclusive: 29.1 µM [inhibitor, single point]"
10,COc1ccc(C(=O)/C=C/NCc2ccc(F)cc2)cc1OC,"inconclusive: 29.1 µM [inhibitor, single point]"
11,O=C(N/C=C/c1ccccc1)Nc1ccc(Cl)cc1,"inconclusive: 18.4 µM [inhibitor, single point]"
12,Cc1ccc(CNCCCSc2nc(C)cc(C)n2)cc1,"inconclusive: 29.1 µM [inhibitor, single point]"
13,CCCOc1ccc(NC(=O)CC2C(=O)N(c3ccc(C)cc3)C(=O)N2CCc2ccncc2)cc1 (configuration not stated),"inconclusive: 23.1 µM [inhibitor, single point]"
14,N#Cc1ccc(-c2ccc(OCC(=O)Nc3cccnc3)cc2)cc1,"inconclusive: 18.4 µM [inhibitor, single point]"
15,COc1ccc2cc(CO)n(C)c2c1,"inconclusive: 29.1 µM [inhibitor, single point]"
16,CCN(CC)C(=O)C1=C(C)N(CCCN2CCCC2=O)C(=O)C(CC(=O)NCCc2ccccn2)C1 (configuration not stated),inactive
17,COc1ccc(-c2noc(CCC(=O)NC3CCCCC3)n2)cc1,"inconclusive: 23.1 µM [inhibitor, single point]"
18,CCOC(=O)c1nnn(-c2nonc2N)c1CN(CC)c1ccccc1,"inconclusive: 13 µM [inhibitor, partial curve, poor fit]"
19,CCN(C(=O)CSc1nnc(Cn2nnc3ccccc32)o1)c1nc(-c2ccccc2)cs1,"inconclusive: 23.1 µM [inhibitor, single point]"
20,O=C(Cn1nc(-c2ccccc2)nc(Cc2ccccc2)c1=O)Nc1ccc(Cl)cc1,inactive
21,N#Cc1ccccc1OCc1nnc(-c2ccccc2Br)o1,"inconclusive: 29.1 µM [inhibitor, single point]"
22,CCCc1[nH]c2ccc(C#N)cc2c1CCC,"inconclusive: 29.1 µM [inhibitor, single point]"
23,Cc1c(N2C(=O)c3ccc4c5c(ccc(c35)C2=O)CC4)c(=O)n(-c2ccccc2)n1C,"inconclusive: 25.9 µM [inhibitor, single point]"

row,SMILES,Potency
1,O=C(N1CCN(CCO)CC1)N1c2ccccc2C=Cc2ccccc21,"inconclusive: 29.1 µM [inhibitor, single point]"
2,CCc1nc2c(OCc3ccc(C#N)cc3)cccn2c1N(C)C(=O)C(C)C,"inconclusive: 29.1 µM [inhibitor, single point]"
3,CC(C)Cn1c(C2CC(=O)N(c3ccccc3Cl)C2)nc2ccccc21 (configuration not stated),"inconclusive: 20.6 µM [inhibitor, single point]"
4,Cc1ccc(S(=O)(=O)N2CCN(c3nn(C)c(=O)n(C)c3=O)CC2)cc1C,"inconclusive: 18.4 µM [inhibitor, partial curve]"
5,CN1CCN(c2ccccc2NC(=O)c2cc(Br)ccc2Cl)CC1,"inconclusive: 29.1 µM [inhibitor, single point]"
6,COc1cccc(C(=O)Nc2cc(S(=O)(=O)N3CCCCC3)ccc2OC)c1,"inconclusive: 25.9 µM [inhibitor, single point]"
7,COc1ccc(NS(=O)(=O)c2cc3c(cc2C)N(C(C)=O)CCO3)cc1OC,"inconclusive: 29.1 µM [inhibitor, single point]"
8,CC(C)(C)OC(=O)N1Cc2[nH]c3ccccc3c2C[C@@H]1C(=O)O,inactive
9,O=C(c1ccc(Cl)cc1)C1CCN(C(=O)c2ccccc2)CC1,active: 14.6 µM
10,COc1ccc2c(=O)cc(-c3ccccc3)n(C)c2c1,"inconclusive: 29.1 µM [inhibitor, partial curve, poor fit]"
11,Cc1cccc(-n2c(N)cc(=O)nc2SCC(=O)Nc2ccc(F)cc2)c1C,inactive
12,Cc1[nH]c(=S)c(C#N)c(C)c1Cc1ccccc1,"inconclusive: 16.4 µM [inhibitor, partial curve, poor fit]"
13,O=C(NC(=S)N1CCN(c2ccc(O)cc2)CC1)c1cccs1,"inconclusive: 13 µM [inhibitor, partial curve]"
14,CCOC(=O)c1ccccc1Cc1nc2ccccc2c(=O)[nH]1,"inconclusive: 20.6 µM [inhibitor, single point]"
15,Cc1ccc(S(=O)(=O)Cn2nnnc2CN(Cc2ccco2)Cc2cccs2)cc1,"inconclusive: 11.6 µM [inhibitor, partial curve]"
16,COC(=O)[C@@]1(C(C)C)N=C(c2cc(OC)c(OC)c(OC)c2)[C@]2(O1)C(=O)N(C)c1ccc(Cl)cc12,"inconclusive: 18.4 µM [inhibitor, single point]"
17,CCOC(=O)C1CCCN(C(=O)/C=C/c2ccc([N+](=O)[O-])cc2)C1 (configuration not stated),"inconclusive: 8.2 µM [inhibitor, full curve, poor fit]"
18,CC(OC(=O)CCN=C1NS(=O)(=O)c2ccccc21)C(=O)Nc1ccc(F)cc1Cl (configuration not stated),inactive
19,OCC1(CCc2ccccc2)CCN(Cc2cc(Cl)ccc2O)CC1,inactive
20,COc1cc(F)ccc1CN1CCC(C(=O)Nc2ccc(Oc3ccccc3)nc2)CC1,active: 16.4 µM
21,Cn1cnc([N+](=O)[O-])c1Oc1cccc(O)c1,active: 23.1 µM
